AUC and IC50 data for 66 cell lines are collected here from the supplement of paper PMC4967469.

A lower IC50 marks a more sensitive line; a limit (>, <) means that the fit lies beyond the doses tested. AUC, from the same fit, is the share of area under the viability curve across the 256-fold dose range; values near 1 show little effect. A top dose marked as inferred was calculated from the reported fits.

Compound in this assay: C=CC(=O)Nc1cccc(Nc2nc(NC3CCC(N(C)C)CC3)nc3c2ncn3C(C)C)c1 [WZ3105]
In words: Viability of human cancer cell lines after 72 h of drug (GDSC screen). The following applies: top dose inferred. The method, then:
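Human cancer cell lines in 384-well plates, medium with 10% serum, drug for 72 h over a 256-fold dose range (nine 2-fold or five 4-fold steps up to the top dose). Adherent lines were fixed and stained with the nucleic acid dye Syto60, suspension lines read with resazurin; signal relative to control wells, capped at 0 and 100%. One two-parameter sigmoid per drug and line, fitted in a mixed model over all curves with the slope shared within a line.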

For “Caov-4 (ovary, adherent, top dose 1.28 µM)”, the AUC was found to be 0.858 and the IC50 was more than 1280 nM.
For “Capan-2 (pancreas, adherent, top dose 1.28 µM)” the same measures were 0.845 and 1240 nM.
“ChaGo-K-1 (non-small cell lung carcinoma, adherent, top dose 1.28 µM)”: the AUC was determined as 0.77 and the IC50 was determined as 565 nM.
For “D-247MG (glioma, adherent, top dose 1.28 µM)” the same measures were 0.968 and more than 1280 nM.
Taken in the same sequence, the figures for “D-263MG (glioma, adherent, top dose 1.28 µM)” were 0.903 and more than 1280 nM.
Taken in the same sequence, the figures for “D-283MED (medulloblastoma, adherent, top dose 1.28 µM)” were 0.986 and more than 1280 nM.
On to “D-336MG (glioma, adherent, top dose 1.28 µM)”, for which the AUC turned out to be 0.667 and the IC50 was found to be 267 nM.
Taken in the same sequence, the figures for “D-392MG (glioma, adherent, top dose 1.28 µM)” were 0.732 and 476 nM.
For “D-423MG (glioma, adherent, top dose 1.28 µM)” the same measures were 0.838 and 1150 nM.
Take “D-502MG (glioma, adherent, top dose 1.28 µM)”: the AUC is 0.921 and the IC50 is more than 1280 nM.
For “D-542MG (glioma, adherent, top dose 1.28 µM)” the same measures were 0.984 and more than 1280 nM.
For “D-566MG (glioma, adherent, top dose 1.28 µM)” the same measures were 0.779 and 514 nM.
Taken in the same sequence, the figures for “DAN-G (pancreas, adherent, top dose 1.28 µM)” were 0.916 and more than 1280 nM.
With “DB (B-cell lymphoma, suspension, top dose 1.28 µM)”, the AUC was 0.618 and the IC50 was found to be 177 nM.
Taken in the same sequence, the figures for “DBTRG-05MG (glioma, adherent, top dose 1.28 µM)” were 0.915 and more than 1280 nM.
For “DEL (lymphoid neoplasm, suspension, top dose 1.28 µM)” the same measures were 0.664 and 204 nM.
In the case of “DG-75 (Burkitt lymphoma, suspension, top dose 1.28 µM)”, the AUC turned out to be 0.732 and the IC50 was 370 nM.
Taken in the same sequence, the figures for “DJM-1 (skin, adherent, top dose 1.28 µM)” were 0.845 and 912 nM.
Consider “DK-MG (glioma, adherent, top dose 1.28 µM)”, for which the AUC was determined as 0.664 and the IC50 worked out at 287 nM.
For “DMS-53 (small cell lung carcinoma, adherent, top dose 1.28 µM)” the same measures were 0.987 and more than 1280 nM.
As for “DMS-79 (small cell lung carcinoma, suspension, top dose 1.28 µM)”, the AUC was 0.701 and the IC50 stood at 326 nM.
“DMS-114 (small cell lung carcinoma, adherent, top dose 1.28 µM)”: the AUC is 0.715 and the IC50 is 359 nM.
For the cell line “DMS-273 (small cell lung carcinoma, adherent, top dose 1.28 µM)”, the AUC was found to be 0.683 and the IC50 is 269 nM.
For “DND-41 (T-cell leukaemia, suspension, top dose 1.28 µM)” the same measures were 0.745 and 362 nM.
As to “DOK (head and neck, adherent, top dose 1.28 µM)”, the AUC amounted to 0.958 and the IC50 was more than 1280 nM.
For “DOV13 (ovary, adherent, top dose 1.28 µM)” the same measures were 0.981 and more than 1280 nM.
For “DSH1 (bladder, adherent, top dose 1.28 µM)” the same measures were 0.697 and 278 nM.
For “DU-145 (prostate, adherent, top dose 1.28 µM)” the same measures were 0.947 and more than 1280 nM.
As for “DU-4475 (breast, suspension, top dose 1.28 µM)”, the AUC worked out at 0.762 and the IC50 worked out at 381 nM.
Taken in the same sequence, the figures for “Daoy (medulloblastoma, adherent, top dose 1.28 µM)” were 0.855 and 877 nM.
Take “Daudi (Burkitt lymphoma, suspension, top dose 1.28 µM)”: the AUC is 0.678 and the IC50 was 234 nM.
Taken in the same sequence, the figures for “Detroit562 (head and neck, adherent, top dose 1.28 µM)” were 0.974 and more than 1280 nM.
For “DoTc2-4510 (cervix, adherent, top dose 1.28 µM)” the same measures were 0.894 and more than 1280 nM.
For “EB2 (Burkitt lymphoma, suspension, top dose 1.28 µM)” the same measures were 0.477 and 69.8 nM.
Regarding “EB-3 (Burkitt lymphoma, suspension, top dose 1.28 µM)”, the AUC turned out to be 0.571 and the IC50 is 129 nM.
For “EBC-1 (lung squamous cell carcinoma, adherent, top dose 1.28 µM)” the same measures were 0.793 and 672 nM.
Taken in the same sequence, the figures for “EC-GI-10 (oesophagus, adherent, top dose 1.28 µM)” were 0.946 and more than 1280 nM.
For the cell line “ECC10 (stomach, suspension, top dose 1.28 µM)”, the AUC was found to be 0.642 and the IC50 was found to be 202 nM.
Taken in the same sequence, the figures for “EFM-19 (breast, adherent, top dose 1.28 µM)” were 0.737 and 554 nM.
For “EFM-192A (breast, adherent, top dose 1.28 µM)”, the AUC amounted to 0.981 and the IC50 is more than 1280 nM.
For “EFO-21 (ovary, adherent, top dose 1.28 µM)” the same measures were 0.784 and 814 nM.
On to “EFO-27 (ovary, adherent, top dose 1.28 µM)”, for which the AUC worked out at 0.77 and the IC50 came out at 610 nM.
For “EGI-1 (biliary tract, adherent, top dose 1.28 µM)” the same measures were 0.901 and more than 1280 nM.
For “EJM (lymphoid neoplasm, semi-adherent, top dose 1.28 µM)” the same measures were 0.565 and 117 nM.
For “EKVX (lung adenocarcinoma, adherent, top dose 10.24 µM)” the same measures were 0.756 and 8680 nM.
With “EM-2 (chronic myeloid leukaemia, suspension, top dose 1.28 µM)”, the AUC was determined as 0.606 and the IC50 was 163 nM.
Taken in the same sequence, the figures for “EMC-BAC-1 (lung adenocarcinoma, adherent, top dose 1.28 µM)” were 0.74 and 434 nM.
For “EMC-BAC-2 (lung adenocarcinoma, adherent, top dose 1.28 µM)” the same measures were 0.736 and 434 nM.
For “EN (endometrium, adherent, top dose 1.28 µM)” the same measures were 0.742 and 486 nM.
With “EPLC-272H (lung squamous cell carcinoma, adherent, top dose 1.28 µM)”, the AUC turned out to be 0.515 and the IC50 amounted to 88.5 nM.
For “ES1 (Ewing sarcoma, adherent, top dose 1.28 µM)” the same measures were 0.566 and 121 nM.
In the case of “ES3 (Ewing sarcoma, adherent, top dose 1.28 µM)”, the AUC was found to be 0.534 and the IC50 was 99.7 nM.
On to “ES4 (Ewing sarcoma, adherent, top dose 1.28 µM)”, for which the AUC was 0.66 and the IC50 is 239 nM.
For “ES5 (Ewing sarcoma, adherent, top dose 1.28 µM)” the same measures were 0.586 and 143 nM.
For “ES6 (Ewing sarcoma, adherent, top dose 1.28 µM)” the same measures were 0.784 and 682 nM.
For “ES7 (Ewing sarcoma, adherent, top dose 1.28 µM)” the same measures were 0.484 and 72.1 nM.
In the case of “ES8 (Ewing sarcoma, adherent, top dose 1.28 µM)”, the AUC was found to be 0.426 and the IC50 stood at 51.2 nM.
For “ES-2 (ovary, adherent, top dose 1.28 µM)” the same measures were 0.917 and more than 1280 nM.
Take “ESO26 (oesophagus, adherent, top dose 1.28 µM)”: the AUC turned out to be 0.638 and the IC50 is 188 nM.
With “ESO51 (oesophagus, semi-adherent, top dose 1.28 µM)”, the AUC was found to be 0.836 and the IC50 is more than 1280 nM.
For “ESS-1 (endometrium, adherent, top dose 1.28 µM)” the same measures were 0.909 and more than 1280 nM.
Taken in the same sequence, the figures for “ETK-1 (biliary tract, adherent, top dose 1.28 µM)” were 0.863 and more than 1280 nM.
For “EVSA-T (breast, adherent, top dose 1.28 µM)” the same measures were 0.84 and 703 nM.
For the cell line “EW-1 (Ewing sarcoma, semi-adherent, top dose 1.28 µM)”, the AUC amounted to 0.435 and the IC50 amounted to 53.9 nM.
Taken in the same sequence, the figures for “EW-3 (Ewing sarcoma, adherent, top dose 1.28 µM)” were 0.531 and 98.4 nM.
Regarding “EW-7 (Ewing sarcoma, semi-adherent, top dose 1.28 µM)”, the AUC came to 0.593 and the IC50 is 139 nM.

Usually IC50 stands for the point on the concentration scale where inhibition reaches its midpoint.
